Measurements from patent US20190153113A1, “CD39 VASCULAR ISOFORM TARGETING AGENTS” (INNATE PHARMA, priority 2015, published 2019).
Entries after “also recorded” stand apart in the source; their conditions may differ.

Legend:
[1] = biological target: T1, CD39-L1 (Homo sapiens, UniProt Q9Y5L3); experiment: ELISA titration on recombinant human CD39 isoforms; format: binding; details: recombinant protein coated
T1 sequence (Q9Y5L3 1-472 isoform Q9Y5L3-2): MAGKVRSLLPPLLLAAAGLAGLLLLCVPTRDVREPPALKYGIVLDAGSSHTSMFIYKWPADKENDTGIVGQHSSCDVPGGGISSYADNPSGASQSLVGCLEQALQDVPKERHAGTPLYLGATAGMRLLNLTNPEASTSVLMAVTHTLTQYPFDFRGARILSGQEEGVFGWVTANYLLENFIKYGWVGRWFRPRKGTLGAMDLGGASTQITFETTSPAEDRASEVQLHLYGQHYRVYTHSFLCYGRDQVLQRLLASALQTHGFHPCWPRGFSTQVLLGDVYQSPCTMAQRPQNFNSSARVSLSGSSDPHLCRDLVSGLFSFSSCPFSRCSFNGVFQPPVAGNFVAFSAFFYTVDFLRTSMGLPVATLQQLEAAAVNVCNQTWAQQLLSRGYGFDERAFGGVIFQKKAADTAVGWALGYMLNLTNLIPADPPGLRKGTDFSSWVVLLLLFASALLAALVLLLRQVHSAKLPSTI
Method: (§1) Wells were washed in TBS Tween 20, and further saturated 2H at RT in TBS Blocking buffer. Dose range concentration of primary antibody was incubated in TBS blocking buffer for 2h at RT. Wells were washed in TBS Tween 20. […] Optical density was measured on Enspire at OD=450.

[2] = biological target: T2, CD39-L3 (Homo sapiens, UniProt O75355); experiment: ELISA titration on recombinant human CD39 isoforms; format: binding; details: recombinant protein coated
T2 sequence (O75355 1-529): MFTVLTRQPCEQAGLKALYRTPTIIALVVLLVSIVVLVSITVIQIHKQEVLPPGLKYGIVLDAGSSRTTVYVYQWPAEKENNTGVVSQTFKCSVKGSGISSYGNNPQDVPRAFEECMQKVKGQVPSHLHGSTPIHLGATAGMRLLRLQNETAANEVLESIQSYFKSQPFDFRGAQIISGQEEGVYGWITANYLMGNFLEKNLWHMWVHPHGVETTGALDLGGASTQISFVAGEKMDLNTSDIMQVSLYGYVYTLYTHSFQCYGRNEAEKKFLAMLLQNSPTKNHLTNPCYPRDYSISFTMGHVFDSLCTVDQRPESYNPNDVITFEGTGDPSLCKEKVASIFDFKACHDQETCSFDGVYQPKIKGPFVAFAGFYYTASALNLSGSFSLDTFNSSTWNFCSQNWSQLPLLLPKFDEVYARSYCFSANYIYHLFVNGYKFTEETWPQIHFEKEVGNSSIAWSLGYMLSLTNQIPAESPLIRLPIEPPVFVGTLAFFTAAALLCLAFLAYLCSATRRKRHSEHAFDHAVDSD
Method: as §1

[3] = biological target: T3, CD39-L4 (Homo sapiens, UniProt O75356); experiment: ELISA titration on recombinant human CD39 isoforms; format: binding; details: recombinant protein coated
T3 sequence (O75356 25-428): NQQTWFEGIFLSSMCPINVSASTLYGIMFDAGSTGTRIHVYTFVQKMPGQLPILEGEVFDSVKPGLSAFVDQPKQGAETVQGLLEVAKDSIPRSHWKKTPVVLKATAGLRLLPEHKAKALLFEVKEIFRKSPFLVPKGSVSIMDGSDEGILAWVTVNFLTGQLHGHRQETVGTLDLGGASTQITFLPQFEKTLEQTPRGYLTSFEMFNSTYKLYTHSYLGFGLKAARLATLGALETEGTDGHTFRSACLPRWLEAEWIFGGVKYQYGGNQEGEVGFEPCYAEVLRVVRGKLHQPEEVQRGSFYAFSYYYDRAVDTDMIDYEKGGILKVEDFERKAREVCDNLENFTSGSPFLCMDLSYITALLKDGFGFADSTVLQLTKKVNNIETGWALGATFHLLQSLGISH
Method: as §1

[4] = biological target: T4, vascular CD39 (Homo sapiens, UniProt P49961); experiment: ELISA titration on recombinant human CD39 isoforms; format: binding; details: recombinant protein coated
T4 construct: recombinant human CD39-M2 extracellular domain recombinant protein; made in house; host or cells: CHO cells (secreted, purified from supernatant)
T4 sequence (P49961 38-478 limits assumed): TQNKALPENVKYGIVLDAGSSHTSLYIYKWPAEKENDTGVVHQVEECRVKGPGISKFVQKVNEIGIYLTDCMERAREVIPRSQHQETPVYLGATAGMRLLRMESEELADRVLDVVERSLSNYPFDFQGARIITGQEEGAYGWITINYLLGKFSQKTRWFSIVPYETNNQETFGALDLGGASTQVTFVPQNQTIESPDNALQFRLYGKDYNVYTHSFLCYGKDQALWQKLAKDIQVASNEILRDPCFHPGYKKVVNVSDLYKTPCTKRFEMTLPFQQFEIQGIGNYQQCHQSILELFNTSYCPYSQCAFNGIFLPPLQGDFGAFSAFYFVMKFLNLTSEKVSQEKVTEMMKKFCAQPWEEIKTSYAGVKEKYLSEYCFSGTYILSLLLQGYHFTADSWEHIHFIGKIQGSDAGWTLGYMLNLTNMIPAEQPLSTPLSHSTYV
Method: as §1

[5] = biological target: T5, human CD39 at cell surface (Homo sapiens, UniProt P49961); experiment: CD39 down-modulation / internalization on Ramos cells; format: cell-based; details: Ramos human lymphoma cells, 10 μg/ml, 4° C. or 37° C.
T5 construct: cells that endogenously express CD39 at their surface, e.g. regulatory T (TReg) cells, B cells, cancer cells, lymphoma cells (e.g. Ramos cells); endogenous in cells; host or cells: Ramos human lymphoma cells
T5 sequence (P49961 1-510): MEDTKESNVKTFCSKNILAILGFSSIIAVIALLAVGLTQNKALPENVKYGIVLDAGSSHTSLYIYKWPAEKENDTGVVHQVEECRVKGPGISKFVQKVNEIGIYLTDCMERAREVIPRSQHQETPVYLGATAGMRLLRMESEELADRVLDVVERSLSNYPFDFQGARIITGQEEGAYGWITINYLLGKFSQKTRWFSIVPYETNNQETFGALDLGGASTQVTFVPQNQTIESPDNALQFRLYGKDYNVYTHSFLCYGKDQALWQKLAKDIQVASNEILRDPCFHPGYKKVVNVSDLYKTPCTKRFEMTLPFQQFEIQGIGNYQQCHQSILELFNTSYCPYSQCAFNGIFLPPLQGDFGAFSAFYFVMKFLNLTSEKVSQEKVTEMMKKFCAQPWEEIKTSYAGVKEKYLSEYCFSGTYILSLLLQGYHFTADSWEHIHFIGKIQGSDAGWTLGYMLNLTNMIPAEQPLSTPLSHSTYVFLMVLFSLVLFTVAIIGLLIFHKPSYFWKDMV

[6] = biological target: T6, CD39 (Homo sapiens, UniProt P49961); experiment: Inhibition of CD39 enzymatic activity in Ramos cells, AMP production by Maldi TOF mass spectrometry; format: cell-based
T6 construct: cells that endogenously express CD39 at their surface, e.g. regulatory T (TReg) cells, B cells, cancer cells, lymphoma cells (e.g. Ramos cells); endogenous in cells; host or cells: Ramos human lymphoma cells
T6 sequence (P49961 1-510): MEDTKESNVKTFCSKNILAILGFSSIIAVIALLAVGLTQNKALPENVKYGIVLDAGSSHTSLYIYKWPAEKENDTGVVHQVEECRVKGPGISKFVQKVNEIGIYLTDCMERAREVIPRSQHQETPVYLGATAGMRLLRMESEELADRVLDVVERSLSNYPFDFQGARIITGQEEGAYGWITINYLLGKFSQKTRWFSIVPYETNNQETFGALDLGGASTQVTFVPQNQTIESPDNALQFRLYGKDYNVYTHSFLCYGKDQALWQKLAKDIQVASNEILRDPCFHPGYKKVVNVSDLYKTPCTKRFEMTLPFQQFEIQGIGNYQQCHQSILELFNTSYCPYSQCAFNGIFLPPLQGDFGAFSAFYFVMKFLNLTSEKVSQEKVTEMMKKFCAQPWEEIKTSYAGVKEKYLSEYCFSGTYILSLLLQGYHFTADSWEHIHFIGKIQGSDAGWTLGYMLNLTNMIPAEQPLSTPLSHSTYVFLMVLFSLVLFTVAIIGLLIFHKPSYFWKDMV
Method: The inhibition of CD39 enzymatic activity by antibodies was evaluated by Maldi TOF mass spectrometry (production of AMP). This assay represents an assay that is relatively insensitive to down-modulation of CD39 expression. […] After washes, cells were incubated with anti-CD39 antibodies, isotype control, or ARL and 50 μM ATP for 30 minutes at 4° C. in PBS. AMP generated is quantified in supernatants by Maldi TOP.
The inhibition of CD39 enzymatic activity by antibodies was evaluated by Maldi TOF mass spectrometry (production of AMP). Briefly, 10^5 Ramos human lymphoma cells were incubated overnight at 37° C. with anti-CD39 antibodies or a chemical CD39 inhibitor (ARL 100 μM). After washes, cells were incubated with anti-CD39 antibodies, isotype control, or ARL and 50 μM ATP for 30 minutes at 4° C. in PBS. AMP generated is quantified in supernatants by Maldi TOP. Antibodies were used at 33 nM and ARL at […].

binding to CD39-L1 [1]: without any binding
maximum inhibition achieved ([6]; 50 μM ATP): 93.4%
inhibition of AMP generated ([6]; antibodies at 33 nM, Example 7): strong inhibition of AMP generated
B1: I-391: anti-CD39 antibody, VH SEQ ID NO: 6 and VL SEQ ID NO: 7, Fc silent chimeric human IgG1 with N297Q mutation (antibody)
heavy: QIQLVQSGPELKKPGETVKISCKASGYTFRNYGMNWVKQAPGKGLKWMGWINTYTGEPTYADDFKGRFAFSLATSASTAYLQISNLKNEDTATYFCARKAYYGSNYYFDYWGQGTTLTVSSASTKGPSVFPLAPSSKSTSGGTAALGCLVKDYFPEPVTVSWNSGALTSGVHTFPAVLQSSGLYSLSSVVTVPSSSLGTQTYICNVNHKPSNTKVDKRV[letters of human IgG1 Fc with changes left out]
light: DIVMTQSHKFMSTSVGDRVSITCKASQDVSTAVAWYQQKPGQSPKLLIYSASYRYTGVPDRFTGSGSGTDFTFTISTVQAEDLAVYYCQQHYTTPPYTFGGGTKLEIKRTVAAPSVFIFPPSDEQLKSGTASVVCLLNNFYPREAKVQWKVDNALQSGNSQESVTEQDSKDSTYSLSSTLTLSKADYEKHKVYACEVTHQGLSSPVTKSFNRGEC
binding to CD39-L3 [2]: not to any of the CD39 isoforms; also recorded: without any binding
binding to CD39-L4 [3]: not to any of the CD39 isoforms; also recorded: without any binding
binding to vascular CD39 [4]: bound to the vascular CD39; also recorded: bound only vascular CD39
CD39 down modulation / internalization [5]: do not induce CD39 down modulation nor CD39 internalization; also recorded: did not induce CD39 down modulation nor CD39 internalization
blocking CD39 enzymatic activity ([6]; Example 6): very potent at blocking CD39 enzymatic activity
